Results as given in PubChem BioAssay AID1346428 (National Center for Advancing Translational Sciences (NCATS), 2018).
In all, about 48,000 compounds went through this assay and about 1,200 (2.5%) were called active. About 2% were inconclusive and are not listed.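 The calls were made as follows: active = activation of at least 60% and not above a set upper limit (about 1 call in 100 departs from these limits); inconclusive = activation of 40% to 60%, or above that upper limit; inactive = activation under 40%.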 Some of the results follow.

molecular target: Probable G-protein coupled receptor 32 (Homo sapiens) (UniProt O75388); assay: qHTS for Agonists of Human Resolvin D1 Receptor DRV1; conditions: CHO-K1 GPR32 beta-arrestin PathHunter luminescence, 90 min; at 76.9 µM; hits give high values; zero percent set by DMSO-only wells; also: 0% is about no effect
UniProt O75388, sequence (O75388 whole entry, looked up): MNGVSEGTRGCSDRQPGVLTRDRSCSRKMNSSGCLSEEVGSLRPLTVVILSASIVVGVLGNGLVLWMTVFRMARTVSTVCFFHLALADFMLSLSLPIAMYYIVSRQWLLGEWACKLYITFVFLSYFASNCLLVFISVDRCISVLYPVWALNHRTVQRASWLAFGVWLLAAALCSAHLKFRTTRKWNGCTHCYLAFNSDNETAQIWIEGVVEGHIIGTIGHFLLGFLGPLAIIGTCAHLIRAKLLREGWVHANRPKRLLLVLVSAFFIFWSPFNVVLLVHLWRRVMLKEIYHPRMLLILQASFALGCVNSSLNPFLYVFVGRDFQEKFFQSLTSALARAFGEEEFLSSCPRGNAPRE
In short: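 Luminescent readout of beta-Gal complementation quantifies ligand-induced beta-arrestin association with GPR32 in CHO-K1 cells; 90 min compound incubation at 37 °C, detection 1 h at room temperature.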

activation, inactive:
Cc1cccc(Cn2c(=O)n3nc(-c4ccccc4)nc3c3ccccc32)c1 -7.65%, CC(C)c1ccc(S(=O)(=O)c2nnn3c2nc(N2CCCC2)c2sccc23)cc1 0.41%, CCC(C)c1ccc2oc(-c3ccc(NC(=O)c4cc5ccccc5o4)cc3)nc2c1 (stereo not drawn) -0.177%, COc1ccccc1Nc1nc(-c2ccccc2F)nc2ccccc12 -17.1%, Cc1cccc(-c2nn3c(=O)cc(CN4CCN(C(=O)/C=C/c5ccccc5)CC4)nc3s2)c1 -1.7%, Cn1c(=O)[nH]c2cc(-c3noc(-c4ccc(Br)cc4)n3)ccc21 -9.22%, COc1cc2c(C(=O)Nc3cc(OC)c(OC)c(OC)c3)cn(C)c(=O)c2cc1OC 14.9%, O=C(CC1N=C2c3ccccc3N=C(SCc3ccc(F)cc3)N2C1=O)NCc1ccc2c(c1)OCO2 (stereo not drawn) -10.8%, O=C(NCCN1CCN(c2cccc(Cl)c2)CC1)Nc1ccccc1 39.7%, CCc1ccc(NC(=O)c2ccc(-c3ccccc3)s2)cc1 -4.22%, Cc1ccc(NC(=O)CSc2nnc3ccc4ccccc4n23)cc1 -5.11%, Cc1cccc(C(=O)NCC(c2ccco2)S(=O)(=O)c2cccs2)c1 (stereo not drawn) -4.25%, CCOC(=O)C1CCN(c2ncnc3c2nc2n3CCCCC2)CC1 33.1%, CCc1ccc(NC(=O)c2cnn(-c3ccccc3)c2-n2cccc2)cc1 15%, CCC(Oc1ccccc1)C(=O)Nc1nnc(S(=O)(=O)N(CC)CC)s1 (stereo not drawn) -5.55%, CCc1cnc2c(c1SCC(=O)NCc1ccccc1Cl)c(=O)n(C)c(=O)n2C -4.87%, Cc1cccc(NC(=O)c2ccc(-c3ccccc3)s2)c1 -9.35%, COc1ccc(OC)c(C(C)NC(=O)Cn2c(=O)cc(C)c3c(C)nn(-c4ccc(C)cc4)c32)c1 (stereo not drawn) -20.5%, Nc1c(-c2nc(-c3cccs3)no2)nnn1-c1cccc(Cl)c1 5.11%, CCCCC(=O)Nc1ccc2nc(SCC(=O)N3CCCC3)sc2c1 -15.5%, Cc1ccc(C)c(N2CCN(Cc3csc(C)c3C)CC2)c1 18.4%, COc1ccccc1-c1cc(C(=O)N2CCCCC2C)no1 (stereo not drawn) -18.7%, CCc1ccc(Nc2ncnc3c2cnn3-c2cc(Cl)ccc2C)cc1 34.7%, COc1cccc(CNC(=O)C(NS(=O)(=O)c2ccc3c(c2)CCN3C(C)=O)C(C)C)c1 (stereo not drawn) 6.36%, Cc1cccc(-c2nc(Cn3c(=O)cc(-c4ccccc4)c4c(C)nn(C)c43)c(C)o2)c1 -2.15%, CCn1cc(C(=O)OCC(=O)Nc2ccc(F)cc2F)c(=O)c2ccc(C)nc21 -5.31%, COC(=O)c1ccc(Cn2c(=O)cc(C(F)(F)F)c3c(C)nn(C)c32)cc1 13.1%, CCCn1c2ccccc2c2cnn(CC(=O)NCCc3ccccc3)c(=O)c21 44.2%, O=C(Cn1c2ncccc2c(=O)n1-c1ccccc1)Nc1ccc(F)c(F)c1 -8.31%, O=C(NCc1ccc(Cl)cc1)C1CCCN(c2nc3ccccc3n3cccc23)C1 (stereo not drawn) -36.4%, CCN(c1ccc(OC)cc1)S(=O)(=O)c1ccc2[nH]c(=O)ccc2c1 -10.1%, CCOc1ccc(S(=O)(=O)N(CC(=O)NCCSc2ccccc2)c2ccccc2)cc1 3.5%, Cc1ccccc1Cn1c(=O)n(CCc2ccccc2)c(=O)c2ccccc21 6.72%, Cc1cc(N2CCCCC2)nc2ccc(NC(=O)/C=C/c3ccccc3Cl)cc12 -22.8%, Cn1nc(C(=O)NCc2ccc(Cl)cc2)c2c1-c1ccccc1SC2 -7.1%, CCCCC(CC)CNC(=O)c1ccc2c(=O)n(Cc3ccc(OC)cc3)c(=O)[nH]c2c1 (stereo not drawn) -5.13%, COc1ccc(CNC(=O)Cc2c(C)c3c(cc(C)c4c(C)c(C)oc43)oc2=O)cc1 -2.82%, CCSc1ncc(Cl)c(C(=O)Nc2nc3ccc(OC)cc3s2)n1 -6.97%, Cc1cc(=O)n2nc(N3CCC(C(=O)Nc4ccc(C)c(Cl)c4)CC3)sc2n1 5.73%, Cc1ccc(N(Cc2cccs2)C(=O)c2ccc(Br)o2)cc1 -28.1%, Cc1ccc(O)c(N=Nc2ccccc2)n1 -0.291%

activation, active:
CCOc1ccccc1CC1C(=O)Nc2ccc(Br)cc21 (stereo not drawn) 73%, CCc1nonc1NC(=O)c1oc2ccccc2c1C 65.5%
